Some of the results follow. Binding of human antibodies (heavy:light variable regions, tested as scFv in one mRNA-display pool) to influenza hemagglutinin, with or without the stem antibody CR9114 bound first. Score = (mean enrichment − median) / interquartile range of that screen; higher = more enriched, 0 = typical non-binder. Active = above the paper's cut-off per screen: stems 28; unblocked H1 Solomon Islands 5, H1 Michigan 3, H3 5, H5 19, H7 2.85, both B 5; blocked 9, 7, H5 10, H7 10, B Phuket 10, B Lee 11.5. Scores are scaled within each screen and are no affinities; replicates correlate at about 0.6 to 0.9, and antibodies rare in the pool are noisier.
B1: antibody 2C03 (protein)
chain 1: VQLVESGGGVVQPGRSLRLSCAASGFTFSTYAMHWVRQAPGKGLEWVAIISYDGTYKYYADSVKGRFTISRDNLKNTLYLQMDSLRAEDTAVYYCGGECDGDCGGIDYWGQGALVTVSS
chain 2: DIVMTQSPDSLAVSLGERATINCRSSHSLLYSSNNKNYLAWYQQKPGQPPKLLIYWASTRHSGVPDRFSGSGSGTDFTLTISSLQAEDVALYYCQQYYDTPFTFGPGTKVEIK
B2: 051-09-4D03 (protein)
chain 1: QVQLVQSGPEVRKPGASVKVSCKASGYTFTNHDINWVRQAPGQGLEWMGWVNPSNNNVGYAQKFRGRVTMTKDSSTSTVHMELYSLTSEDTAVYYCARGLGGGISVFGVLVRGRWFDPWGQGTLVTVSS
chain 2: DIQMTQSPSTLSASVGDRVTITCRASQSISTDLAWYQQKPGRAPKVLIFEASRLQSGVPSRFSGSGSGTEFTLTISSLQPGDVATYYCQQYNIYSWTFGQGTKVEIK
B3: R95-1B07 (protein)
chain 1: QVQLQGSGPGLVKPSGTLSLTCGVSCASISSNHVSSGVPQPPGKGGEAIGELVHNGRTIYNPSLRSRLNISLDRSKILFSLKLTSVTAADTAVYYCAFFQRGYTSGSDYWGQGTLVTVSS
chain 2: QAVVTQEPSFSVSPGGTVTLTCGLSSGSVSTNNYPSWYQQTPGQAPRTLIYSTNTRSSGVPDRFSGSILGTRAALTVTGAQAEDESDYYCMLYLGSGSWVFGGGTKLTVL
B4: R95-1F03 (protein)
chain 1: QVQLQESGPGLVKASGTLSLTCVVSGGSIRSENWWSWVRQPPGKGLEWIGEVYHSGNANYNPSLKSRVSISVDESKTQFSLRLTSVTAADTAVYYCVKDGARDSSGYYNYRWGWYDPWGQGILVVVSS
chain 2: DIQMTQSPSSLSASVGDRVTITCRASQSIGGYLNWYQQKPGKAPKLLIYAASTLQSGVPARFSGSGSGTDFTLTISSLQPEDFATYYCQQSYNLVSITFGQGTRLDIK
B5: antibody 3G01 (protein)
chain 1: VQLQESGPGLVRPSKTLSLTCTVSGDSIDSSTDYWAWIRQPPGKGLEWIGNIYYSGTTYYNPSLQSRVTISVDTSKNQFSLTLRSVTAADTALFYCARQEIVGIRVWGQGTLVTVSS
chain 2: DIVMTQSPDSLAVSLGERATISCKSSQSVLYSANNKNYLAWYQQRPGQPPKLLIYWSSTRESGVPDRFSGSGSGTDFSLTISSLQAEDVAVYYCQQYYDTPYTFGQGTKVEIK
B6: antibody 2G04 (protein)
chain 1: EVQLLESGGGVVQPGRSLRLSCAASGFIFSYSGIHWVRQAPGKGLEWVALISYDGRNQYYADSVKGRFTISRDNTKTTLQMNNLRAEDTAVYFCARDRHDFGDNYEIDYWGLGTTVTVSS
chain 2: FMLTQPHSVSESPGKTVTISCTRSSGNIASYFVQWYQQRPGSAPTTVIFEDDQRPSGVPDRFSGSIDSSSNSASLTISGLRTEDEADYYCQSYDTINPHVIFGGGTKLTVL

Each binder was assayed against Influenza A H1N1 A/Michigan/45/2015 hemagglutinin ectodomain (assay: mRNA display binding score; higher = more enriched on the antigen). Conditions: antigen blocked with: 2 µM CR9114 IgG.
Experimental: (§1)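 A pool of natively paired antibodies, displayed as scFv on mRNA, was selected once on antigen-coated beads and sequenced before and after; two replicates.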

Binder | mRNA display binding score
B1 | inactive: -0.155
B2 | inactive: -0.195
B3 | inactive: -0.515
B4 | inactive: -0.199
B5 | inactive: -0.462
B6 | inactive: 3

Same assay, conditions: antigen blocked with: nothing

Binder | mRNA display binding score
B1 | inactive: -0.027
B2 | inactive: 0.498
B3 | inactive: -0.736
B4 | inactive: -0.701
B5 | inactive: -0.26
B6 | inactive: 0.348

What follows are binders tested against Influenza A H1N1 A/Solomon Islands/3/2006 hemagglutinin ectodomain in the same assay as above. Conditions: antigen blocked with: 2 µM CR9114 IgG.
Experimental: as §1

Binder | mRNA display binding score
B1 | inactive: -0.379
B2 | inactive: 0.0293
B3 | inactive: -0.462
B4 | inactive: -0.621
B5 | inactive: -0.702
B6 | inactive: 0.0111

Same assay, conditions: antigen blocked with: nothing

Binder | mRNA display binding score
B1 | inactive: -0.214
B2 | inactive: 0.00837
B3 | inactive: -0.632
B4 | inactive: -0.654
B5 | inactive: -0.328
B6 | inactive: 0.834

Each binder was assayed against Influenza A H3N2 A/Singapore/INFIMH-16-0019/2016 hemagglutinin ectodomain in the same assay as above. Conditions: antigen blocked with: nothing.
Experimental: as §1

Binder | mRNA display binding score
B1 | inactive: -0.553
B2 | inactive: -0.284
B3 | inactive: -0.362
B4 | inactive: -0.553
B5 | inactive: -0.0293
B6 | inactive: 2.29

These binders were tested against Influenza A H5N1 A/Qinghai/1A/2005 hemagglutinin ectodomain in the same assay as above. Conditions: antigen blocked with: 2 µM CR9114 IgG.
Experimental: as §1

Binder | mRNA display binding score
B1 | inactive: 0.419
B2 | inactive: 0.527
B3 | inactive: -0.817
B4 | inactive: -0.751
B5 | inactive: -0.798
B6 | inactive: 6.89

Same assay, conditions: antigen blocked with: nothing

Binder | mRNA display binding score
B1 | inactive: -0.522
B2 | inactive: 0.401
B3 | inactive: -0.613
B4 | inactive: -0.502
B5 | inactive: -0.514
B6 | inactive: 19

Each binder was assayed against Influenza A H7N9 A/Shanghai/2/2013 hemagglutinin ectodomain in the same assay as above. Conditions: antigen blocked with: 2 µM CR9114 IgG.
Experimental: as §1

Binder | mRNA display binding score
B1 | inactive: 0.114
B2 | inactive: -0.931
B3 | inactive: -0.855
B4 | inactive: -0.464
B5 | inactive: -0.628
B6 | inactive: 1.07

Same assay, conditions: antigen blocked with: nothing

Binder | mRNA display binding score
B1 | inactive: -0.266
B2 | inactive: 0.32
B3 | inactive: -0.774
B4 | inactive: -0.558
B5 | inactive: -0.398
B6 | inactive: 0.257

The binders below were run against Influenza B/Lee/1940 hemagglutinin ectodomain in the same assay as above. Conditions: antigen blocked with: 2 µM CR9114 IgG.
Experimental: as §1

Binder | mRNA display binding score
B1 | inactive: -0.107
B2 | inactive: -0.977
B3 | inactive: -0.449
B4 | inactive: -0.326
B5 | inactive: -0.614
B6 | inactive: 1.21

Same assay, conditions: antigen blocked with: nothing

Binder | mRNA display binding score
B1 | inactive: 0.091
B2 | inactive: -0.335
B3 | inactive: -0.463
B4 | inactive: 1.21
B5 | inactive: -0.337
B6 | active: 69.7

The binders below were run against Influenza B/Phuket/3073/2013 hemagglutinin ectodomain in the same assay as above. Conditions: antigen blocked with: 2 µM CR9114 IgG.
Experimental: as §1

Binder | mRNA display binding score
B1 | inactive: 0.0324
B2 | inactive: -0.603
B3 | inactive: -0.591
B4 | inactive: -0.378
B5 | inactive: -0.48
B6 | active: 44.2

Same assay, conditions: antigen blocked with: nothing

Binder | mRNA display binding score
B1 | inactive: -0.162
B2 | inactive: -0.304
B3 | inactive: -0.462
B4 | inactive: -0.0425
B5 | inactive: -0.363
B6 | active: 56.6

Source: the supplement of paper PMC11383711
